Laboratory results reported in the supplement of paper PMC8047034.
Where a name gives a salt, the structure may show the parent alone. Some of the results follow. Single values are uncertain, as repeats are few or missing.

Each compound was assayed on OVCAR4 (assay: log2 surviving fraction (library drug vs vehicle, or drug + carboplatin vs carboplatin alone; relative to plate median); ovarian cancer lines: OVCAR4 is platinum-sensitive and Ov4Carbo platinum-resistant; higher = more cell survival). Conditions: library drug concentration 10 µM; 7 days; carboplatin co-treatment 0 µM.
Compound Nc1nc(N)c2nc(-c3ccccc3)c(N)nc2n1 [triamterene] has a log2 surviving fraction of -0.942.
In the case of CCC(=O)O[C@]1(C(=O)SCF)[C@H](C)C[C@H]2[C@@H]3C[C@H](F)C4=CC(=O)C=C[C@]4(C)[C@@]3(F)[C@@H](O)C[C@@]21C [Fluticasone propionate (Flonase, Veramyst)], the log2 surviving fraction is reported as 0.0463.
CCN1CCN(C(=O)N[C@@H](C(=O)N[C@@H]2C(=O)N3[C@@H]2SC(C)(C)[C@@H]3C(=O)O)c2ccccc2)C(=O)C1=O [Piperacillin Sodium] gave a log2 surviving fraction of 0.863.
Compound CC#CCn1c(N2CCC[C@@H](N)C2)nc2c1c(=O)n(Cc1nc(C)c3ccccc3n1)c(=O)n2C [Linagliptin (BI-1356)] has a log2 surviving fraction of -0.0946.
C#CCN[C@@H]1CCc2ccccc21 [Rasagiline mesylate] gave a log2 surviving fraction of -0.936.
With CCN1CCN(c2cc(-c3ccc(F)cc3)c3c(n2)CCCCCC3)CC1 [Blonanserin (Lonasen)] the log2 surviving fraction was 0.417.
CC[C@H]1OC(=O)C[C@@H](O)[C@H](C)[C@@H](O[C@@H]2O[C@H](C)[C@@H](O)[C@H](N(C)C)[C@H]2O)[C@@H](CCN2C[C@H](C)C[C@H](C)C2)C[C@@H](C)C(=O)/C=C/C(C)=C/[C@@H]1CO[C@@H]1O[C@H](C)[C@@H](O)[C@@H](OC)[C@H]1OC [Tilmicosin] gave a log2 surviving fraction of -0.433.
C[N+](C)(C)C[C@H](O)CC(=O)[O-] [L-carnitine (Levocarnitine)] was tested, and the log2 surviving fraction was -0.524.
Compound Fc1ccc(C(c2ccc(F)cc2)N2CCN(C/C=C/c3ccccc3)CC2)cc1 [Flunarizine 2HCl] has a log2 surviving fraction of -1.43.
With CCCNC(C)C(=O)Nc1ccccc1C (centres undefined) [Prilocaine] the log2 surviving fraction was 1.03.
In the case of C[C@]12CC[C@H](O)CC1=CC[C@@H]1[C@@H]2CC[C@]2(C)C(=O)CC[C@@H]12 [Dehydroepiandrosterone (DHEA)], the log2 surviving fraction is reported as -0.215.
Nc1ncnc2c1ncn2[C@@H]1O[C@H](COP(=O)(O)OP(=O)(O)OP(=O)(O)O)[C@@H](O)[C@H]1O [ATP (Adenosine-Triphosphate)] showed a log2 surviving fraction of 0.658.
Work on CCc1c(Cl)c(O)c(Cl)c(O)c1C(=O)O[C@H]1[C@H](O)[C@H](OC)[C@H](OC/C2=C\C=C\C[C@H](O)/C(C)=C/[C@H](CC)[C@@H](O[C@@H]3OC(C)(C)[C@@H](OC(=O)C(C)C)[C@H](O)[C@@H]3O)/C(C)=C/C(C)=C/C[C@@H]([C@@H](C)O)OC2=O)O[C@@H]1C [Fidaxomicin] yielded a log2 surviving fraction of -0.197.
Clc1ccc2c(c1)C(N1CCNCC1)=Nc1ccccc1O2 [Amoxapine] showed a log2 surviving fraction of -0.549.
Cc1cccc(C)c1NC1=NCCCS1 [Xylazine HCl] showed a log2 surviving fraction of 0.0759.
Compound CCN[C@H]1CN(CCCOC)S(=O)(=O)c2sc(S(N)(=O)=O)cc21 [Brinzolamide] has a log2 surviving fraction of 0.977.
Compound CNCCCC12CCC(c3ccccc31)c1ccccc12 [Maprotiline hydrochloride] has a log2 surviving fraction of -1.98.
Compound CN1CCN(c2c(F)cc3c(=O)c(C(=O)O)cn4c3c2OCN4C)CC1 [Marbofloxacin] has a log2 surviving fraction of 0.277.
Work on OCCOCCN1CCN(C(c2ccccc2)c2ccc(Cl)cc2)CC1 (centres undefined) [Hydroxyzine 2HCl] yielded a log2 surviving fraction of 0.0471.
With Cc1onc(-c2ccccc2)c1C(=O)N[C@@H]1C(=O)N2[C@@H]1SC(C)(C)[C@@H]2C(=O)O [Oxacillin sodium monohydrate] the log2 surviving fraction was 0.637.
With O=S(=O)(O)CCS [Mesna (Uromitexan, Mesnex)] the log2 surviving fraction was 1.13.
CCC[C@@H]1C[C@@H](C(=O)N[C@@H]([C@H]2O[C@H](SC)[C@H](O)[C@@H](O)[C@H]2O)[C@H](C)Cl)N(C)C1 [Clindamycin] showed a log2 surviving fraction of 0.988.
In the case of O=C(O[C@H]1C[C@H]2CC[C@@H](C1)[N+]21CCCC1)C(O)(c1ccccc1)c1ccccc1 [Trospium chloride (Sanctura)], the log2 surviving fraction is reported as 0.136.
With CCCCCCOC(=O)NC(=N)c1ccc(NCc2nc3cc(C(=O)N(CCC(=O)OCC)c4ccccn4)ccc3n2C)cc1 [BIBR-1048 (Dabigatran)] the log2 surviving fraction was 0.462.
With Clc1ccc(COC(Cn2ccnc2)c2ccc(Cl)cc2Cl)c(Cl)c1 (centres undefined) [Miconazole nitrate] the log2 surviving fraction was -2.63.
In the case of CCOC(=O)[C@H](CCc1ccccc1)N[C@H]1CCc2ccccc2N(CC(=O)O)C1=O [Benazepril hydrochloride], the log2 surviving fraction is reported as -0.358.
COc1ccc(CNc2nc(N3CCC[C@H]3CO)ncc2C(=O)NCc2ncccn2)cc1Cl [Avanafil] showed a log2 surviving fraction of -0.698.
In the case of NCCNCCNCCNCCN [Tetraethylenepentamine 5HCl], the log2 surviving fraction is reported as -2.54.
Work on Nc1[nH]cnc2ncnc1-2 [Adenine hydrochloride] yielded a log2 surviving fraction of 1.23.
Work on Nc1nc(N)nc(NC2CC2)n1 [Cyromazine] yielded a log2 surviving fraction of -0.718.
Cc1cc(NS(=O)(=O)c2ccc(N)cc2)no1 [Sulfamethoxazole] was tested, and the log2 surviving fraction was 1.2.
CCn1nc(C(=O)O)c(=O)c2cc3c(cc21)OCO3 [Cinoxacin] was tested, and the log2 surviving fraction was 0.41.
Work on CCN(CC)C(=O)C1(c2ccccc2)CC1CN (centres undefined) [Milnacipran HCl] yielded a log2 surviving fraction of 0.115.
In the case of Clc1ccc(C(Cn2ccnc2)OCc2c(Cl)cccc2Cl)c(Cl)c1 (centres undefined) [Isoconazole nitrate (Travogen)], the log2 surviving fraction is reported as -2.01.
NCCCC[C@H](N[C@@H](CCc1ccccc1)C(=O)O)C(=O)N1CCC[C@H]1C(=O)O [Lisinopril (Zestril)] gave a log2 surviving fraction of 0.262.
For CN1CCC[C@H]1c1cccnc1 [Nicotine Ditartrate], the log2 surviving fraction was 0.781.
For CCN(C)C(=O)Oc1cccc([C@H](C)N(C)C)c1 [Rivastigmine tartrate (Exelon)], the log2 surviving fraction was 0.757.
In the case of COc1ccccc1OCC(O)COC(N)=O (centres undefined) [Methocarbamol (Robaxin)], the log2 surviving fraction is reported as 0.849.
Compound C[C@]12CC[C@@H]3c4ccc(O)cc4CC[C@H]3[C@@H]1CC[C@@H]2O [Estradiol] has a log2 surviving fraction of 0.306.
